Results taken from the supplement of paper PMC10441789.
This is one part of the list. Antibody binding of pooled human sera (four to six donors per pool; dilution not stated) to peptides of the Trypanosoma cruzi antigen TSSA on microarrays. Quantile-normalised fluorescence in arbitrary units, mean of duplicate arrays; higher = more binding. No active / inactive call. The uninfected pools are read here as the healthy donors of the same country. The strongest signals lie near the top of the scale (about 60,000).

Tests used:
Test in all cases: antibody binding signal (normalised fluorescence) (arbitrary fluorescence units); higher = stronger serum antibody binding to peptide
[1] = tested on: pooled sera of chronic Chagas disease patients, Argentina
Procedure: (§1)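 Microarray of 15-residue peptides over residues 30-55 of Trypanosoma cruzi TSSAII, each with 1 to 10 substitutions at naturally variable positions, probed with one serum pool per country.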

[2] = tested on: pooled sera of chronic Chagas disease patients, Bolivia
Procedure: as §1

[3] = tested on: pooled sera of chronic Chagas disease patients, Brazil
Procedure: as §1

[4] = tested on: pooled sera of chronic Chagas disease patients, Colombia
Procedure: as §1

[5] = tested on: pooled sera of chronic Chagas disease patients, Mexico
Procedure: as §1

[6] = tested on: pooled sera of chronic Chagas disease patients, USA
Procedure: as §1

[7] = tested on: pooled sera of uninfected people, Argentina
Procedure: as §1

[8] = tested on: pooled sera of uninfected people, Bolivia
Procedure: as §1

[9] = tested on: pooled sera of uninfected people, Brazil
Procedure: as §1

[10] = tested on: pooled sera of uninfected people, Colombia
Procedure: as §1

[11] = tested on: pooled sera of uninfected people, Mexico
Procedure: as §1

[12] = tested on: pooled sera of uninfected people, USA
Procedure: as §1

Sequence | antibody binding signal [1] | antibody binding signal [2] | antibody binding signal [3] | antibody binding signal [4] | antibody binding signal [5] | antibody binding signal [6] | antibody binding signal [7] | antibody binding signal [8] | antibody binding signal [9] | antibody binding signal [10] | antibody binding signal [11] | antibody binding signal [12]
GTDNKAATGGAPSQS | 643 | 384 | 33900 | 838 | 534 | 1700 | 301 | 588 | 1710 | 197 | 208 | 108
KEKKAAAGETPSPSG | 159 | 192 | 205 | 155 | 127 | 761 | 110 | 80.8 | 89.6 | 85 | 85.1 | 246
TPPSGKENKAATGGA | 28700 | 2180 | 2470 | 919 | 4210 | 3170 | 3530 | 1450 | 140 | 582 | 224 | 582
DNKPAAGGTPSQPGA | 206 | 655 | 7080 | 1360 | 263 | 388 | 299 | 525 | 1660 | 586 | 746 | 147
SGTDKKAATGETPSP | 1040 | 3150 | 13800 | 1900 | 240 | 9540 | 570 | 229 | 230 | 445 | 660 | 1300
KKAAAGETPSQSGAS | 212 | 749 | 2600 | 194 | 120 | 563 | 228 | 299 | 78.4 | 160 | 122 | 255
DKKAATGEAPSPSGA | 19800 | 22700 | 26000 | 184 | 456 | 24900 | 689 | 115 | 185 | 720 | 140 | 210
KENKPAAGGAPSPSG | 191 | 192 | 1600 | 738 | 370 | 558 | 225 | 143 | 141 | 115 | 101 | 204
PPSGTDKKAATGEAP | 19700 | 33600 | 27800 | 4690 | 13500 | 24800 | 576 | 287 | 283 | 776 | 2160 | 275
GTDNKPATGGTPSQP | 3330 | 1470 | 41100 | 2170 | 614 | 470 | 260 | 922 | 862 | 273 | 732 | 131
STPPSGKEKKPAAGG | 21500 | 1090 | 3170 | 498 | 41200 | 641 | 485 | 450 | 151 | 319 | 112 | 420
PPSGKEKKTAAGGTP | 1920 | 533 | 1610 | 7130 | 3630 | 3340 | 240 | 433 | 636 | 149 | 282 | 127
TENKPAAGGAPSQPG | 47200 | 1650 | 21700 | 1440 | 904 | 2640 | 252 | 453 | 390 | 192 | 254 | 224
STPPSGKDKKTAAGG | 21200 | 933 | 1580 | 811 | 41900 | 1420 | 165 | 465 | 122 | 125 | 80.6 | 143
SGTEKKPATGEAPSQ | 44500 | 50800 | 47800 | 321 | 358 | 39700 | 905 | 879 | 531 | 244 | 226 | 275
PPSGKDKKAATGETP | 1320 | 479 | 1190 | 1300 | 17200 | 6720 | 529 | 439 | 120 | 364 | 120 | 158
TPPSGTEKKAATGGT | 34000 | 5660 | 27000 | 567 | 10400 | 3000 | 1070 | 382 | 1940 | 803 | 133 | 207
KKAAAGEAPSQPGAS | 1910 | 22800 | 30400 | 1340 | 178 | 7890 | 232 | 348 | 137 | 139 | 85 | 216
KDKKAATGGAPSPSG | 282 | 244 | 204 | 367 | 643 | 449 | 218 | 112 | 111 | 189 | 80.3 | 101
PSGKDKKTAAGETPS | 4370 | 2190 | 3340 | 7100 | 6470 | 5170 | 214 | 466 | 126 | 526 | 106 | 119
